Reference: article PMC4336329 (PLoS ONE, 2015)
In all, about 310,000 compounds went through this assay and about 14,000 (4.5%) showed an effect of 50% or more. The effect is printed as a negative number. Some of the results follow.

Target: human ether-à-go-go-related gene (hERG) potassium channel (human, UniProt Q12809)
Assay: primary screen, population patch clamp on CHO cells stably expressing hERG
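Note: peak tail current of the secondary pulse compared with the same well before compound.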

Chain of human ether-à-go-go-related gene (hERG) potassium channel (Q12809 whole entry, looked up): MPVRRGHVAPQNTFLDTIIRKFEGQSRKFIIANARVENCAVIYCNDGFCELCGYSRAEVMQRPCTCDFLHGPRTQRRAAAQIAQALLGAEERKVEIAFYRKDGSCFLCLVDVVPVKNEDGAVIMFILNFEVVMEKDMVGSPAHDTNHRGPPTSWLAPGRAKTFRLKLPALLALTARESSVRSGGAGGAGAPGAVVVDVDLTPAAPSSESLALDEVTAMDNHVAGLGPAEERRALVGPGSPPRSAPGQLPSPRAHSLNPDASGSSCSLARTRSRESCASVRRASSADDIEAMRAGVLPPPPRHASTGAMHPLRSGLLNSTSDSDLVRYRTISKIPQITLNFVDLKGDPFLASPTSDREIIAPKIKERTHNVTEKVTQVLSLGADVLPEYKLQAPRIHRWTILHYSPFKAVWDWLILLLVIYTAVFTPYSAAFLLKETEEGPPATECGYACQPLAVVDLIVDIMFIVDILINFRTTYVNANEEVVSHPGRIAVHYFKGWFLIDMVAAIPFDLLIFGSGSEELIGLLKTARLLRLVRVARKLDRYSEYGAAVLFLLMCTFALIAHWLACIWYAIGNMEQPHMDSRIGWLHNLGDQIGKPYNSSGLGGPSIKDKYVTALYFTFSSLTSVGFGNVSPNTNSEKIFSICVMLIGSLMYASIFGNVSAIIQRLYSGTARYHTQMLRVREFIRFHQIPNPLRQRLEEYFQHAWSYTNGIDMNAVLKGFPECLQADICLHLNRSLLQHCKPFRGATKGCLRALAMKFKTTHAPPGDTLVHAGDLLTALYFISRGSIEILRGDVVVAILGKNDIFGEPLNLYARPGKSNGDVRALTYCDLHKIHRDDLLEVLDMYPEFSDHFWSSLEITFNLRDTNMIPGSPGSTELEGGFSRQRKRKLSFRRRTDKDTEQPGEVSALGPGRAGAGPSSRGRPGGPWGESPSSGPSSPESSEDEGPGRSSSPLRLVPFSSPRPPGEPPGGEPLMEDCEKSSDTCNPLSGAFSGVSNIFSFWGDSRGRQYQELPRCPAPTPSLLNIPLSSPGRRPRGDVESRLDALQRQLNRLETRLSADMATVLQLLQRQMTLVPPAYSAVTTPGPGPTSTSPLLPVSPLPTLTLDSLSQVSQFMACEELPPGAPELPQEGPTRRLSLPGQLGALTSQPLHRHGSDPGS

In order of rising “hERG current change (%, negative = inhibition) at 10uM” value:
1. CCCCCC(=O)N1CC2(CC(c3cccc(NC(=O)COc4ccc(Cl)cc4)c3)=NO2)C[C@@H]1C(N)=O (some centres unmarked)  -77%
2. COc1ccccc1N1CCN(C2=Nc3cccc4cccc2c34)CC1  -71.5%
3. O=C(NCCS(=O)(=O)N1CCN(c2ccccc2F)CC1)c1ccc(Cl)cc1  -55.5%
4. O=C(NCc1ccco1)c1ccc2c(c1)S(=O)(=O)c1ccccc1C2=O  -49.6%
5. COCCN1CC(=O)N2C(c3cccc(C)c3)c3[nH]c4ccccc4c3C[C@H]2C1=O (some centres unmarked)  -43.9%
6. COc1ccc(N2CCN(Cc3nc4c(c(=O)[nH]c(=O)n4C)n3CCCc3ccccc3)CC2)cc1  -41.8%
7. COc1cc(O)c(C(CCN2CCCC(C)C2)c2ccc(N(C)C)cc2)c(OC)c1 (centres unmarked)  -29.5%
8. NC(=O)CC(NC(=O)c1ccccc1)c1ccc(N2CCCCCC2)c([N+](=O)[O-])c1 (centres unmarked)  -28.3%
9. Cc1cc(Cl)ccc1C(=O)C1CCCN(C(=O)c2nonc2C)C1 (centres unmarked)  -26.3%
10. COc1ccc(-c2ccc(=O)n(Cc3cccc([N+](=O)[O-])c3)n2)cc1  -21.2%
11. Cn1c(O)c(C=NC2CCN(Cc3ccccc3)CC2)c(=O)n(C)c1=O  -20.4%
12. COc1ccc(C(=O)/C=C/c2ccccc2)c(OC)c1  -19%
13. COc1ccc(N(CC(=O)NC2CCCCC2)C(=O)c2ccc(C)s2)c(OC)c1  -18.1%
14. COc1ccc(NC(=O)C(Sc2nnc(-c3ccncc3)n2-c2ccccc2C)c2ccccc2)cc1Cl (centres unmarked)  -18%
15. COC(=O)c1c(C)[nH]c(C)c1-c1ccccc1Cl  -17.6%
16. CCOc1ccc(NC(=S)N2CCC(N(C)CCN3CCOCC3)CC2)cc1  -15.9%
17. COC(=O)c1sccc1NC(=O)c1c(Cl)cnn1C  -14.6%
18. C=CCN1C(=O)NC2(CCCCC2)C1=O  -14%
19. O=C(CNC(=S)N(CCCN1CCOCC1)Cc1cccs1)NC1CC1  -14%
20. Cc1nc(C(F)(F)F)c(C(=O)NC(=O)Nc2ccc(OC(F)(F)F)cc2)s1  -13.4%
21. CC(C)c1ccc(S(=O)(=O)N2CCN(C(=O)Cc3ccsc3)CC2)cc1  -13.3%
22. CSc1nc(NCC(C)C)nc(N2CCOCC2)n1  -12.1%
23. Cc1c(N)c(C)c([N+](=O)[O-])c(C)c1[N+](=O)[O-]  -10.1%
24. CCCC(C)NC(=O)Cc1ccccc1 (centres unmarked)  -9.74%
25. CCNC(=O)NC(=O)CSc1nc2ccccc2n1CCOC  -9.5%
26. COC(=O)C1CCN(CC(=O)Nc2sc3c(c2C#N)CCC3)CC1  -8.65%
27. CC1(C)CC(=O)C2=C(C1)OC(N)=C(C#N)C2Cc1ccccc1 (centres unmarked)  -8.21%
28. CCOC(=O)NC(NC(=O)OCC)C(=O)c1ccc(F)cc1  -7.77%
29. Cc1cc(C)n(-c2ccc(C(=O)C(C#N)c3nc4ccccc4n3C)cc2)n1 (centres unmarked)  -7.73%
30. COc1ccc(S(=O)(=O)N(CC(=O)N2CCN(C)CC2)C2CCCCC2)cc1OC  -7.66%
31. O=C(COc1ccccc1)NCC(=O)N/N=C/c1cccs1  -7.57%
32. COC(=O)/C(=C/Nc1ccccc1)[N+](=O)[O-]  -7.37%
33. COc1cccc(C2C(C#N)=C(C)NC3=C2C(=O)CC(C)(C)C3)c1 (centres unmarked)  -5.17%
34. CC(C)Oc1cccc(C(=O)NC2=NCCS2)c1  -4.17%
35. Cn1c(SCC(=O)Nc2ccc(N3CCOCC3)cc2)nnc1-c1ccccc1  -4.09%
36. COc1nc(N=C(N)N)nc2ccc(C)cc12  -2.73%
37. CCOC(=O)c1sc(NC(=O)CSc2nc3c(cc2C#N)CCCCC3)c(C#N)c1C  -2.01%
38. Cc1ccc(C2=C/C(=C/c3cccs3)C(=O)O2)cc1  -0.922%
39. COC(=O)CCC[C@H]1CC2(C[C@H](CCCO[Si](C)(C)C(C)(C)C)N1C(=O)OC(C)(C)C)OCCO2  -0.895%
40. O=C(CCn1c(=O)[nH]c2ccsc2c1=O)N1CC(=O)N(CCc2ccccc2)C(=O)C1  -0.115%
41. COC(=O)c1sc(NC(=O)c2csc3c2CCCC3)nc1C  0.85%
42. O=C(Nc1ccc2oc(-c3ccccc3F)nc2c1)c1cncc(Br)c1  1.02%
43. COC(=O)c1ccc(CNC(=O)COC(=O)CC23CC4CC(CC(Br)(C4)C2)C3)cc1  1.34%
44. S=c1[nH]nc(-c2ccco2)n1-c1ccc(Cl)cc1  1.73%
45. COc1ccccc1/C=C/C(=O)OCC(=O)c1c(N)n(C)c(=O)n(C)c1=O  2.04%
46. CC1CCN(C(=O)c2cc(Cl)nc3ccccc23)CC1  2.15%
47. C=C1c2cc(C)ccc2NC(=O)N1c1ccccc1  2.71%
48. COc1ccc([N+](=O)[O-])cc1NCc1ccccc1.O=C(O)C(=O)O  2.96%
49. Cn1c(=O)oc2cc(S(=O)(=O)N3CCCCC3)ccc21  2.98%
50. COC(=O)C1=C(N)Oc2cc(C)n(CC3CCCO3)c(=O)c2C1c1ccc(Cl)c(Cl)c1 (centres unmarked)  3.95%
51. COc1ccc(CC(=O)NCC2CCCN(Cc3ccccc3Cl)C2)cc1 (centres unmarked)  4.3%
52. COC(=O)C(C)Oc1ccc(=O)[nH]n1 (centres unmarked)  4.33%
53. CC(Cc1ccsc1)NC(=O)CCc1nnc(COc2ccccc2)o1 (centres unmarked)  4.68%
54. Cn1c(=O)c2c(ncn2CC(=O)N2CCN(C(=O)c3ccco3)CC2)n(C)c1=O  6.48%
55. CC(=O)Nc1ccc(Nc2c([N+](=O)[O-])c(=O)n(-c3ccccc3)c3ccccc23)cc1  6.57%
56. CCN(CC)C1=CC(=O)OC12CCCCC2  6.92%
57. CCN(CC)CCNC(=O)C(C)c1nn(CC)c(=O)c2ccccc12.Cl (centres unmarked)  7.49%
58. CCOC(=O)C1=C(O)C(=O)N(Cc2ccccc2)CC1  7.78%
59. O=C(Nc1cccnc1)c1ccc(CN2CCc3ccccc3C2)cc1  8.68%
60. CC(=O)C1=C(O)C(=O)N(Cc2cccnc2)C1c1ccccc1 (centres unmarked)  8.83%
61. COc1cccc(-c2nn[nH]n2)c1O  9.02%
62. COc1ccc2oc(=N)c(C(=O)Nc3cccc(C)c3C)cc2c1  9.06%
63. COc1ccc(Br)cc1CNc1ccccc1.O=C(O)C(=O)O  9.4%
64. CSCC[C@H](NC(=O)Nc1ccc(S(N)(=O)=O)cc1)C(=O)O  9.48%
65. COc1ccc(/C=C/c2ccc3c(Br)ccc(O)c3n2)cc1  9.55%
66. C#CCCC(=O)c1ccccc1/C=[N+](\[O-])c1ccccc1  9.61%
67. O=C(Cc1cn2ccsc2n1)Nc1cccc2cnccc12  9.76%
68. COc1ccc(-c2sc3cc4c(cc3c2C#CCO)OCO4)cc1  9.76%
69. CCOC(=O)c1ccc(-n2c(=S)sc3c(=O)[nH]c(C)nc32)cc1  10.8%
70. O=C(O)Cc1ccc(NC(=O)Nc2cccc3ccccc23)cc1  11.4%
71. O=C(Nc1ccc(Oc2ccc(Cl)cc2)c(Cl)c1)c1cc(I)cc(I)c1O  11.4%
72. C/C(=N\NC(=O)c1ccc(NS(=O)(=O)c2cccs2)cc1)c1ccc2c(c1)OCO2  11.5%
73. Cc1ccccc1N1C(=O)CC(N2CCN(C(=O)c3ccco3)CC2)C1=O (centres unmarked)  12%
74. COC(=O)C(Cc1ccccc1)NC(=O)CNC(=O)c1sc2ccccc2c1Cl (centres unmarked)  12.3%
75. CCCNC(=S)NC1CC2CCCC(C1)N2CC(C)C.Cl (centres unmarked)  13.1%
76. Cc1ccc2oc(C(=O)N3CCN(CCO)CC3)c(C)c2c1  13.7%
77. CCCC(=O)NC(C)c1nc(-c2ccc(C)cc2)no1 (centres unmarked)  15.3%
78. Cc1c(Br)c([N+](=O)[O-])nn1CC(=O)NCc1ccccn1  15.5%
79. Cc1ccc(-n2c(O)c(/C=N/c3ncn[nH]3)c3ccccc3c2=O)cc1  15.8%
80. COc1ccc2c(c1)c1nc3n(c(=O)c1n2CC(=O)Nc1ccccc1)CCS3  16.2%
81. FC(F)(F)c1cccc(/C=N/NC(=S)NC2CCCCC2)c1  16.7%
82. CN1C(=O)C2(OCCCO2)c2cc(Cl)ccc21  19.3%
83. CCOC(=O)N1CCc2c(sc(NC(=O)c3ccc(S(=O)(=O)N4CCCC4)cc3)c2C#N)C1  19.3%
84. CCN(CC)c1ccc(/C=N/NC(=O)c2nnn(-c3nonc3N)c2C(C)C)c(O)c1  19.8%
85. COc1cccc(OC)c1C(=O)NC(=O)Oc1c(F)cccc1F  19.9%
86. O=C(Nc1cccc(Cl)c1)c1cc(N=Nc2ccc([N+](=O)[O-])cc2Cl)ccc1O  21.5%
87. CC(=O)Nc1ccc(NC(=S)NC(=O)c2ccc([N+](=O)[O-])c(C)c2)cc1  21.9%
88. COc1cccc(N/N=C(\C#N)S(=O)(=O)C(C)(C)C)c1  26.7%
89. O=S1(=O)CCC(n2ncc3c2/C(=C/c2ccccc2)CC3)C1 (centres unmarked)  38.4%
